The record followed here is patent publication US11000038B2, “Pyridone compounds and agricultural and horticultural fungicides containing the same as active ingredients” (priority 2017, dated 2021).

SMILES strings stand for the structures.

The subject of assay [1] is tomato late blight fungi (Phytophthora infestans). Format: in vivo. As to conditions: tomato late blight, spray treatment of tomato plants.
Assay [2] relates to cucumber anthracnose fungi (Colletotrichum orbiculare). The experiment in a line: Test Example H: cucumber anthracnose, spray treatment of cucumber plants. As to conditions: cucumber anthracnose, 250 ppm spray (2.5 ml/pot), 6 to 10 days after inoculation.
Assay [3] concerns rice blast fungi (Magnaporthe grisea). It is filed as in vivo. As to conditions: rice blast, spray treatment of rice plants.

In the case of `COCOc1ccc(C)c(-n2cc(Br)c(=O)c(Cl)c2-c2c(F)cc(F)cc2F)c1` [Compound 285, 5-bromo-3-chloro-1-(5-(methoxymethoxy)-2-methylphenyl)-2-(2,4,6-trifluorophenyl)pyridin-4(1H)-one], the “Test F control value” in assay [1] is recorded as “L (L shows the control value of 50% or less)”. The “Test H control value” in assay [2] was “H (H shows the control value of more than 50%)”. Also, the “Test A control value” in assay [3] is “H (H shows the control value of more than 50%)”.

Regarding `COCOc1ccc(C)c(-n2cc(Br)c(=O)c(Cl)c2-c2c(F)cc(OC)cc2F)c1` [Compound 286, 5-bromo-3-chloro-2-(2,6-difluoro-4-methoxyphenyl)-1-(5-(methoxymethoxy)-2-methylphenyl)pyridin-4(1H)-one], the “Test F control value” in assay [1] is “H (H shows the control value of more than 50%)”. In addition, the “Test H control value” in assay [2] was “H (H shows the control value of more than 50%)”. The “Test A control value” in assay [3] is on record as “H (H shows the control value of more than 50%)”.

`Cc1ccccc1-n1cc(C)c(=O)c(C)c1-c1ccoc1` [Compound 287]: the “Test F control value” in assay [1] is given as “L (L shows the control value of 50% or less)”. The “Test H control value” in assay [2] is reported as “L (L shows the control value of 50% or less)”. In addition, the “Test A control value” in assay [3] is given as “L (L shows the control value of 50% or less)”.

Take `Cc1cccc(F)c1-n1cc(Br)c(=O)c(Br)c1-c1c(F)cc(F)cc1F` [Compound 288]: the “Test F control value” in assay [1] is “L (L shows the control value of 50% or less)”. Further, the “Test H control value” in assay [2] is reported as “L (L shows the control value of 50% or less)”. Besides, the “Test A control value” in assay [3] is on record as “H (H shows the control value of more than 50%)”.

In the case of `Cc1cccc(F)c1-n1cc(Br)c(=O)c(Cl)c1-c1c(F)cc(F)cc1F` [Compound 289], the “Test F control value” in assay [1] is recorded as “L (L shows the control value of 50% or less)”. In addition, the “Test H control value” in assay [2] is “H (H shows the control value of more than 50%)”. The “Test A control value” in assay [3] is listed as “H (H shows the control value of more than 50%)”.

For the compound `Cc1cccc(F)c1-n1cc(Cl)c(=O)c(Br)c1-c1c(F)cc(F)cc1F` [Compound 290], in assay [1], the “Test F control value” is on record as “L (L shows the control value of 50% or less)”. For the same compound, in assay [2], the “Test H control value” is listed as “H (H shows the control value of more than 50%)”. Further, the “Test A control value” in assay [3] was “L (L shows the control value of 50% or less)”.

For `COCCOc1ccc(C)c(-n2cc(C)c(=O)c(C)c2-c2c(F)cc(OC)cc2F)c1` [Compound 316], the “Test F control value” in assay [1] was “L (L shows the control value of 50% or less)”. In assay [2], the “Test H control value” is “H (H shows the control value of more than 50%)”. Further, the “Test A control value” in assay [3] is “H (H shows the control value of more than 50%)”.

Consider `CCc1cn(-c2ccccc2C)c(-c2c(F)cc(F)cc2F)c(CC)c1=O` [Compound 317], for which the “Test F control value” in assay [1] is listed as “L (L shows the control value of 50% or less)”. Also, in assay [2], the “Test H control value” is recorded as “H (H shows the control value of more than 50%)”. Also, the “Test A control value” in assay [3] was “H (H shows the control value of more than 50%)”.

For the compound `Cc1cccc(Cl)c1-n1cc(Cl)c(=O)c(Br)c1-c1c(F)cc(F)cc1F` [Compound 318], the “Test F control value” in assay [1] is on record as “L (L shows the control value of 50% or less)”. The “Test H control value” in assay [2] is “H (H shows the control value of more than 50%)”. Further, in assay [3], the “Test A control value” is on record as “H (H shows the control value of more than 50%)”.

With `Cc1cccc(Cl)c1-n1cc(Cl)c(=O)c(Cl)c1-c1c(F)cc(F)cc1F` [Compound 319], in assay [1], the “Test F control value” is “L (L shows the control value of 50% or less)”. Further, the “Test H control value” in assay [2] was “L (L shows the control value of 50% or less)”. Besides, the “Test A control value” in assay [3] is given as “L (L shows the control value of 50% or less)”.

As to `Cc1c(-n2cc(Br)c(=O)c(Cl)c2-c2c(F)cc(F)cc2F)cccc1[N+](=O)[O-]` [Compound 320], the “Test F control value” in assay [1] is given as “L (L shows the control value of 50% or less)”. Besides, in assay [2], the “Test H control value” is given as “L (L shows the control value of 50% or less)”. The “Test A control value” in assay [3] was “H (H shows the control value of more than 50%)”.

Take `Cc1c(-n2cc(Br)c(=O)c(Br)c2-c2c(F)cc(F)cc2F)cccc1[N+](=O)[O-]` [Compound 321]: in assay [1], the “Test F control value” is listed as “L (L shows the control value of 50% or less)”. Besides, the “Test H control value” in assay [2] is “L (L shows the control value of 50% or less)”. The “Test A control value” in assay [3] is “H (H shows the control value of more than 50%)”.

As for `Cc1c(Cl)cccc1-n1cc(Br)c(=O)c(Cl)c1-c1c(F)cc(F)cc1F` [Compound 322], in assay [1], the “Test F control value” is reported as “L (L shows the control value of 50% or less)”. Also, the “Test H control value” in assay [2] is on record as “H (H shows the control value of more than 50%)”. Also, the “Test A control value” in assay [3] is “H (H shows the control value of more than 50%)”.

For `Cc1c(Cl)cccc1-n1cc(Br)c(=O)c(Br)c1-c1c(F)cc(F)cc1F` [Compound 323], in assay [1], the “Test F control value” is recorded as “H (H shows the control value of more than 50%)”. For the same compound, in assay [2], the “Test H control value” is on record as “H (H shows the control value of more than 50%)”. For the same compound, in assay [3], the “Test A control value” is given as “H (H shows the control value of more than 50%)”.

With `Cc1ccc([N+](=O)[O-])cc1-n1cc(Br)c(=O)c(Cl)c1-c1c(F)cc(F)cc1F` [Compound 324], the “Test F control value” in assay [1] is given as “H (H shows the control value of more than 50%)”. Besides, in assay [2], the “Test H control value” is “H (H shows the control value of more than 50%)”. Moreover, the “Test A control value” in assay [3] is “H (H shows the control value of more than 50%)”.

For the compound `Cc1ccc([N+](=O)[O-])cc1-n1cc(Br)c(=O)c(Br)c1-c1c(F)cc(F)cc1F` [Compound 325], the “Test F control value” in assay [1] is “L (L shows the control value of 50% or less)”. The “Test H control value” in assay [2] was “H (H shows the control value of more than 50%)”. Also, the “Test A control value” in assay [3] is “H (H shows the control value of more than 50%)”.

Turning to `CCc1ccccc1-n1cc(C)c(=O)c(C)c1-c1c(F)cc(F)cc1F` [Compound 326], the “Test F control value” in assay [1] was “L (L shows the control value of 50% or less)”. Further, in assay [2], the “Test H control value” is on record as “H (H shows the control value of more than 50%)”. In addition, the “Test A control value” in assay [3] was “H (H shows the control value of more than 50%)”.

Turning to `CCc1c(-c2c(F)cc(F)cc2F)n(-c2ccccc2C)cc(C(C)=O)c1=O` [Compound 327], the “Test F control value” in assay [1] is reported as “L (L shows the control value of 50% or less)”. Besides, the “Test H control value” in assay [2] was “H (H shows the control value of more than 50%)”. Also, in assay [3], the “Test A control value” was “H (H shows the control value of more than 50%)”.

For `CCc1cn(-c2ccccc2C)c(-c2c(F)cc(F)cc2F)c(C)c1=O` [Compound 328], the “Test F control value” in assay [1] was “L (L shows the control value of 50% or less)”. The “Test H control value” in assay [2] is listed as “H (H shows the control value of more than 50%)”. The “Test A control value” in assay [3] is “H (H shows the control value of more than 50%)”.

With `Cc1cc(Cl)ccc1-n1cc(Br)c(=O)c(Cl)c1-c1c(F)cc(F)cc1F` [Compound 329], the “Test F control value” in assay [1] is given as “L (L shows the control value of 50% or less)”. Further, in assay [2], the “Test H control value” is reported as “H (H shows the control value of more than 50%)”. Besides, the “Test A control value” in assay [3] is on record as “H (H shows the control value of more than 50%)”.

For `Cc1cc(Cl)ccc1-n1cc(Br)c(=O)c(Br)c1-c1c(F)cc(F)cc1F` [Compound 330], the “Test F control value” in assay [1] is reported as “L (L shows the control value of 50% or less)”. Besides, the “Test H control value” in assay [2] is reported as “L (L shows the control value of 50% or less)”. Further, the “Test A control value” in assay [3] is on record as “H (H shows the control value of more than 50%)”.

As for `Cc1cc(Cl)ccc1-n1cc(Cl)c(=O)c(Br)c1-c1c(F)cc(F)cc1F` [Compound 331], in assay [1], the “Test F control value” is “L (L shows the control value of 50% or less)”. In addition, the “Test H control value” in assay [2] was “H (H shows the control value of more than 50%)”. Further, the “Test A control value” in assay [3] is on record as “H (H shows the control value of more than 50%)”.

Regarding `Cc1cc(Cl)ccc1-n1cc(Cl)c(=O)c(Cl)c1-c1c(F)cc(F)cc1F` [Compound 332], the “Test F control value” in assay [1] is on record as “L (L shows the control value of 50% or less)”. In assay [2], the “Test H control value” was “H (H shows the control value of more than 50%)”. In addition, in assay [3], the “Test A control value” is reported as “H (H shows the control value of more than 50%)”.

Consider `Cc1c(N)cccc1-n1cc(Br)c(=O)c(Cl)c1-c1c(F)cc(F)cc1F` [Compound 333], for which the “Test F control value” in assay [1] is given as “L (L shows the control value of 50% or less)”. The “Test H control value” in assay [2] is “H (H shows the control value of more than 50%)”. Further, the “Test A control value” in assay [3] was “H (H shows the control value of more than 50%)”.

Consider `CNc1cccc(-n2cc(Br)c(=O)c(Cl)c2-c2c(F)cc(F)cc2F)c1C` [Compound 334], for which the “Test F control value” in assay [1] is on record as “L (L shows the control value of 50% or less)”. Also, the “Test H control value” in assay [2] is “H (H shows the control value of more than 50%)”. Besides, in assay [3], the “Test A control value” is recorded as “H (H shows the control value of more than 50%)”.

In the case of `Cc1c(N(C)C)cccc1-n1cc(Br)c(=O)c(Cl)c1-c1c(F)cc(F)cc1F` [Compound 335], the “Test F control value” in assay [1] was “L (L shows the control value of 50% or less)”. The “Test H control value” in assay [2] is listed as “L (L shows the control value of 50% or less)”. Further, in assay [3], the “Test A control value” is on record as “H (H shows the control value of more than 50%)”.

Regarding `Cc1ccc(C#N)cc1-n1cc(Br)c(=O)c(Cl)c1-c1c(F)cc(F)cc1F` [Compound 336], in assay [1], the “Test F control value” was “L (L shows the control value of 50% or less)”. For the same compound, the “Test H control value” in assay [2] is listed as “H (H shows the control value of more than 50%)”. In assay [3], the “Test A control value” was “H (H shows the control value of more than 50%)”.

Regarding `Cc1ccc(C#N)cc1-n1cc(Br)c(=O)c(Br)c1-c1c(F)cc(F)cc1F` [Compound 337], the “Test F control value” in assay [1] is given as “L (L shows the control value of 50% or less)”. Also, the “Test H control value” in assay [2] is “L (L shows the control value of 50% or less)”. In assay [3], the “Test A control value” is given as “H (H shows the control value of more than 50%)”.
